# This is one part of the list. At the low end of the ranking, values are background and their order means little.
# Tested on: T1, GST-NbGlk1(82-244)
# T1 sequence: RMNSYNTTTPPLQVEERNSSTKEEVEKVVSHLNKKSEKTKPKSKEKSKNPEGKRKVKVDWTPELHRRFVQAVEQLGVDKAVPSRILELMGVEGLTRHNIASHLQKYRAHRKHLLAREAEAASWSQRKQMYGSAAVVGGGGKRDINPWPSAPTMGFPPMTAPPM
# Assay: protein-binding microarray;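 also: rank-based score ranging −0.5 to +0.5 with E above 0.45 taken as significant binding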
# Conditions: NbGlk1 is a Golden2-like transcription factor of Nicotiana benthamiana; high values mean tight binding; most listed sequences are background and not binding sites; double strand, one strand shown
row,Sequence,binding signal [E-score]
1,ATTGGACC,-0.163
2,AACATACG,-0.098
3,CAACCGTA,-0.019
4,AGCTATTA,-0.0662
5,ATCCGCGG,0.28
6,ACCATACC,-0.0604
7,ATACGAGC,0.0456
8,ACTTACAG,-0.162
9,ACTATCTC,0.171
10,AACGCCGG,-0.128
11,ATAGTCGC,-0.193
12,ACAACAAT,0.126
13,AGGTAATG,-0.0688
14,ACCGACCA,-0.163
15,ATTTTAGC,0.0519
16,AGCGTCAT,-0.173
17,AAGTATCC,0.128
18,ATGGTCCG,-0.123
19,ATGTTCGG,-0.02
20,CAACTGTA,-0.128
21,AGCTTCGG,-0.129
22,ACCTTGCT,-0.0753
23,AGTCCACG,-0.279
24,AGATCTAA,0.303
25,AATATACA,0.21

row,Sequence,binding signal [E-score]
1,AGTCCGGG,-0.317
2,ATCATGAT,0.205
3,ATTCTGGG,0.133
4,ACAAAGCG,-0.132
5,ACTTTGTC,-0.0795
6,ATACCGCG,0.0651
7,CACCAGTC,-0.264
8,AAGCCTAT,0.0307
9,ACACATGG,-0.225
10,ACCCACCT,-0.108
11,AGAAGTAT,0.214
12,ACTCCGGG,-0.14
13,AACCAAAA,0.124
14,AGTCAAAA,0.01
15,ATGACGTC,-0.108
16,AAACCAGA,0.00887
17,AACATTTG,0.0229
18,CAAGCTAC,-0.233
19,AAGACCGC,-0.278
20,ACGGTCCG,-0.239
21,ATGCTTCC,-0.0887
22,AAAACTGA,0.113
23,ATCGCCTC,0.148
24,AATTCTCT,0.225
25,CAGAGGGC,-0.257

row,Sequence,binding signal [E-score]
1,AACGACGT,-0.036
2,AGCTGTAC,-0.145
3,AGCCAATG,-0.135
4,CAATATTC,0.217
5,CAGACAGC,-0.18
6,AGTGGCAG,-0.103
7,ACCGATAT,0.364
8,CAAAGCTC,-0.246
9,CAACCAGG,-0.0798
10,CAAATGTA,-0.123
11,AGAGTAAA,-0.0726
12,ATAGATCC,0.21
13,AGCGATCC,0.274
14,ATATAACC,-0.0154
15,AAATGATG,0.051
16,ACGAGAAA,0.133
17,CAGCCACG,-0.235
18,AGCATTGA,-0.207
19,ACAGCGCC,-0.0907
20,AGTTGTGA,-0.0884
21,AAAAGACT,-0.0557
22,ACACACAC,-0.0418
23,ACTAGGCC,-0.203
24,ATCGAGGC,-0.0579
25,ATCCCAAT,0.201

row,Sequence,binding signal [E-score]
1,ACACTGCT,-0.0856
2,ACTCTTCG,-0.0546
3,ACCAGAAC,-0.166
4,AGGTGATA,0.0464
5,AAGACTCA,-0.18
6,CAATTACC,0.0684
7,ATAGGAAG,0.00375
8,AACCAGGA,-0.131
9,ATGTCAAA,0.00806
10,ATGCCCGG,-0.132
11,AGGACCGC,-0.276
12,AAAGCAAC,-0.0724
13,ACGGCAGA,-0.0613
14,ACGATTCG,0.324
15,ATCACGAG,0.129
16,ATCAAGAA,0.0956
17,AAAATCTT,0.447
18,AGGGCCGC,-0.363
19,AGGCTTCA,-0.241
20,ATGTACAC,0.0354
21,ATAAGGAA,0.114
22,AGTGGCCA,-0.116
23,ACTGCAGA,0.0743
24,ACCAAATC,0.406
25,AAATACAG,0.163

row,Sequence,binding signal [E-score]
1,AATCCTCT,0.366
2,CAACTCCC,-0.17
3,CAGCATCA,0.159
4,ATAATTAC,0.19
5,AGATGGTC,-0.0945
6,AGTCATCG,-0.197
7,AGCTCATA,-0.12
8,AAGACGAT,0.221
9,AGGATTCA,0.14
10,ACCACACT,-0.105
11,ATGCCTTG,-0.0561
12,ACCGACTA,-0.0528
13,AGTCGGAT,0.0372
14,ACTTTACC,-0.0908
15,AATCGATA,0.302
16,AGAACCCC,-0.188
17,AGGCTTAT,-0.0612
18,AGAAGCAA,-0.111
19,ACACCAGT,-0.238
20,AGCGACGA,0.0712
21,ACGCTGCC,-0.171
22,AACGACCA,-0.0768
23,AACGCCGC,-0.196
24,AGTATAGG,-0.0161
25,CACGCTTC,-0.2

row,Sequence,binding signal [E-score]
1,AGCAGGTA,-0.0722
2,AAGTGAGC,-0.0311
3,AGGATAAG,0.056
4,AAATTTCA,0.229
5,AGTTCAAC,-0.109
6,ACGCCGTG,-0.136
7,AGTACGCC,-0.205
8,ATAGTTGC,0.0654
9,AAGAAAAC,-0.209
10,AGCGACGC,-0.131
11,AAATTATT,0.194
12,CAAATATG,0.212
13,AGTTTCCG,-0.12
14,ACATTATG,0.0963
15,AGCTGCCC,-0.248
16,AACGATCG,0.0987
17,AGAGGTTA,-0.151
18,AGCGTGAT,0.156
19,AAACTACT,0.127
20,ACCGCAAT,0.302
21,CAAGCTTA,-0.166
22,AGAATCCA,0.456
23,ATATATTG,0.316
24,AGGCATTA,-0.0293
25,CAAATAGA,0.138

row,Sequence,binding signal [E-score]
1,ACGATCAC,0.156
2,ACGCTTGC,-0.128
3,AGACTCTC,-0.169
4,AATGCAAT,0.303
5,CAGCACAA,-0.0499
6,ATTTGCCG,0.238
7,ATATGGAA,0.219
8,AATCATCG,0.225
9,AGGTGGGC,-0.213
10,ATCAGATA,0.311
11,ACGTTCAA,-0.0144
12,AACTACAT,0.031
13,ACGACAGT,-0.208
14,ATACGCTA,0.239
15,ATCGGCGA,0.184
16,AAGCTAAT,-0.0497
17,ACCACAAT,0.155
18,ATGAAACC,-0.0677
19,AAGCGAGG,-0.102
20,ACTTATTG,0.0501
21,ACACCTCC,-0.00427
22,AGCCTCGG,-0.152
23,AGCGCATC,-0.0255
24,AAGAATCC,0.455
25,AGAACGAC,-0.13

row,Sequence,binding signal [E-score]
1,ATGCCTGG,-0.195
2,AGAAGCTA,-0.231
3,AGATATGA,0.318
4,AGCGTCTC,-0.337
5,AGGCTAGA,-0.00448
6,AGGCGACG,-0.124
7,ACGACAAG,-0.115
8,ACATTCTC,0.0798
9,ACCCCTAT,-0.0331
10,AAAACAGG,0.0296
11,CAAGTGCA,-0.0346
12,ACACCCAT,-0.00979
13,AGCCTATG,-0.237
14,ATGAGACG,-0.128
15,AACCTCGG,-0.166
16,ATAGAACA,-0.00121
17,ATCCACAC,0.203
18,AAGGATTC,0.374
19,AATAGAGT,-0.0137
20,AGTCCGGC,-0.322
21,AATGTCTC,0.0102
22,ATACCGCA,0.211
23,ATTCAGGA,0.206
24,AGATTTCG,0.486
25,AGTGCCTG,-0.217

row,Sequence,binding signal [E-score]
1,ATGGTGCC,-0.267
2,ATCTAAGA,0.26
3,AATATCGT,0.322
4,AGAATTCA,0.0984
5,ACACTTTA,0.0811
6,AAACTATT,0.108
7,CACGTGGG,-0.14
8,CACATTAA,-0.0433
9,ATTCCCGG,0.283
10,ATAAATGA,0.175
11,ACCGATAA,0.124
12,AACCTGTC,-0.169
13,ACCGGACG,-0.304
14,ACAGCCCG,-0.27
15,ACAGCGGA,0.0705
16,AATAGAAG,-0.105
17,ACGAAGAT,0.31
18,ATACAGGG,-0.0974
19,AGTGCCCG,-0.25
20,AGCCTTAG,-0.214
21,CAAGGATC,0.15
22,AGATGTCA,0.0338
23,AATTGTTG,0.0223
24,ACATAGGC,-0.204
25,ATTTCGGC,0.283

row,Sequence,binding signal [E-score]
1,AGCCTGTG,-0.113
2,AGTCGGGC,-0.224
3,ACGTCAAT,0.0537
4,ACTCCGAT,0.0323
5,AAAATGGT,-0.0779
6,AAGCCACT,-0.234
7,CAAGAGAA,0.123
8,ATGTCGCA,0.0249
9,AATTGGGG,0.0599
10,CAGCGATC,0.194
11,ATACCTTG,0.0104
12,ACCTCGAC,-0.212
13,CAAACGTG,0.0202
14,ACCAGACC,-0.237
15,ACGTTACC,-0.0411
16,ATGCTCTG,-0.0748
17,AATTGTCG,0.0571
18,ATCACCAT,0.123
19,AGCCTCCA,-0.25
20,AATACCCT,-0.0772
21,ACCATGAC,-0.159
22,AACTGTGC,-0.112
23,CAGCCCGG,-0.207
24,CACAGACC,-0.16
25,ATGAGCGC,-0.0257

row,Sequence,binding signal [E-score]
1,CAGAGCAA,-0.0723
2,ACATGGTC,-0.294
3,AGCCATAG,-0.285
4,AGGTAAAG,-0.0423
5,ACCCTGCC,-0.148
6,AAAAATTT,0.267
7,ATCCAAGC,0.198
8,AATAATAC,0.103
9,AACTCGAT,0.0596
10,CAACAAGG,-0.0885
11,ACGTATCT,0.318
12,AAGATGTC,-0.0083
13,ATGCTGAC,-0.0932
14,ATGTCGCG,-0.0314
15,AAATAAGT,0.034
16,ACAAATCG,0.297
17,AGATGTTG,0.111
18,CAAACACG,-0.0195
19,ACCATGGC,-0.295
20,AGCCGGGA,-0.0936
21,ACGACTCC,-0.0391
22,AACGAAGC,-0.0104
23,AGGGGCGA,-0.151
24,ACTCCCAG,-0.239
25,AGTTCTAG,-0.0357

row,Sequence,binding signal [E-score]
1,AGGTCTGG,-0.0443
2,ACCGTCAG,-0.124
3,ACTGCGAT,0.208
4,AATTCCTC,0.0722
5,ACATCGCA,-0.0776
6,ACACACCA,-0.105
7,CAACACGC,-0.208
8,ACGCCATC,-0.118
9,ACTGGCTG,-0.204
10,ATTTACAG,0.201
11,AGTCGCTC,-0.229
12,AACCTTTA,0.126
13,AGCCGTGC,-0.223
14,ACTCGAAC,-0.0967
15,AAATACAC,0.0256
16,ACCCACAG,-0.256
17,AGTTACTA,-0.00404
18,AATCAATA,0.274
19,ACGCTGCG,-0.111
20,AATCATAC,0.263
21,AGATTTTC,0.488
22,AGCAGGTG,-0.2
23,ACCTTTGA,-0.00246
24,AGCACAAA,0.0287
25,ACAATCCT,0.302

row,Sequence,binding signal [E-score]
1,ACTTGGAC,-0.0515
2,AGGCTGAT,0.0306
3,AAGACACC,-0.118
4,AGAGAGAC,-0.32
5,AAAGGCTA,-0.121
6,AGTGGGAT,0.105
7,ATGTAGCC,-0.27
8,ACCACGCC,-0.229
9,ACGTGTCA,-0.166
10,ATCCTTGG,0.194
11,AGCTCTGC,-0.195
12,AGACTTCA,-0.198
13,AGTATCGA,0.16
14,AGAATCCC,0.433
15,AGGACCTG,-0.254
16,ATGCCGTG,-0.0945
17,AACAGTAC,-0.0484
18,ATCGCACC,0.247
19,ATAAGTCC,-0.0199
20,ACTCCTTC,-0.223
21,AGTTGTGG,-0.109
22,AACCCCAA,-0.203
23,AATCCTGC,0.356
24,AACCCGAT,0.0786
25,ACCGTAGT,-0.135

row,Sequence,binding signal [E-score]
1,AGGCGGTG,-0.0949
2,ACTTGTGA,-0.0277
3,AGCACATC,-0.153
4,AGACTGGG,-0.165
5,CAATCTAA,0.351
6,ACTGTACA,-0.0745
7,ACGTAGCC,-0.211
8,ACCAGCAC,-0.108
9,AAGGTTGT,-0.149
10,AAGTACGC,-0.125
11,AATTGCCA,0.0599
12,ACGACGCC,-0.172
13,AACGCTTA,-0.07
14,ACTGACGG,0.0189
15,ACCCCAAT,-0.214
16,AGCAGTAC,-0.102
17,ACGTTAGT,0.0229
18,ACGTTAGG,-0.0399
19,ACGATTAT,0.164

# Reference: article PMC5836133
